Reference: publication PMC12820563, “FoxP3 forms a head-to-head dimer in vivo and stabilizes its multimerization on adjacent microsatellites”
Some of the results follow.

The sequences below were run against T1, MBP-FoxP1dN (Mus musculus, UniProt P58462 326-579) (assay: PD-seq (MBP pull-down with sequencing); 20 mM Tris-HCl pH 7.5, 100 mM NaCl, 1.5 mM MgCl2, 0.4 uM protein, 0.1 uM dsDNA library, 30 min, room temperature, amylose pull-down; high values mean tight binding). Settings: protein: recombinant; tags: His6-MBP; chain copies: 2; dsDNA, one strand shown.
T1 sequence: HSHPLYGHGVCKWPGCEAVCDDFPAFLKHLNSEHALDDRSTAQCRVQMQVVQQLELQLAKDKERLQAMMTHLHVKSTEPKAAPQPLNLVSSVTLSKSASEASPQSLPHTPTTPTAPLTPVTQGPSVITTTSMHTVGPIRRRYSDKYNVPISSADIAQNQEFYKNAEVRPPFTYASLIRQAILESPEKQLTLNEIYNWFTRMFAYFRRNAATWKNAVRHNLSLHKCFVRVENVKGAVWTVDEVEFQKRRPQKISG
Procedure, shortened: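 E. coli-expressed mouse FoxP3 or FoxP1 fragment, N-terminus removed and tagged with His6-MBP, was used at 0.4 µM against 0.1 µM of a Klenow-filled degenerate double-stranded DNA library. After 30 min at room temperature in Tris pH 7.5 buffer with NaCl and MgCl2, complexes were pulled down on amylose resin and washed three times. Binding is pull-down over input reads-per-million enrichment from pooled replicates of the proteinase K-released, PCR-barcoded, Illumina-sequenced DNA.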

Sequence | binding signal
GATGATTGTTCTCCCAGCTGATGAATTGAGTGAGTCGAGTAAACAAATTTTCCTAATCTTTCTGTTCAAGCGCCATCTAC | 0.868 RPM ratio (pull-down/input)
GATGATTGTTCTCCCAGCTGATGAATTGGGAGATTCGAGTAAACAAATTTTCCTAATCTTTCTGTTCAAGCGCCATCTAC | 0.878 RPM ratio (pull-down/input)
GATGATTGTTCTCCCAGCTGATGAATTTTCTTCTTCGAGTAAACAAATTTTCCTAATCTTTCTGTTCAAGCGCCATCTAC | 0.985 RPM ratio (pull-down/input)
GATGATTGTTCTCCCAGCTGATGAATTAGTAAGTTCGAGTAAACAAATTTTCCTAATCTTTCTGTTCAAGCGCCATCTAC | 0.984 RPM ratio (pull-down/input)
GATGATTGTTCTCCCAGCTGATGAATTCACGACGTCGAGTAAACAAATTTTCCTAATCTTTCTGTTCAAGCGCCATCTAC | 0.923 RPM ratio (pull-down/input)
GATGATTGTTCTCCCAGCTGATGAATTAGCATTATCGAGTAAACAAATTTTCCTAATCTTTCTGTTCAAGCGCCATCTAC | 1.28 RPM ratio (pull-down/input)
GATGATTGTTCTCCCAGCTGATGAATTCCGATGTTCGAGTAAACAAATTTTCCTAATCTTTCTGTTCAAGCGCCATCTAC | 0.867 RPM ratio (pull-down/input)
GATGATTGTTCTCCCAGCTGATGAATTCTTGGCGTCGAGTAAACAAATTTTCCTAATCTTTCTGTTCAAGCGCCATCTAC | 0.895 RPM ratio (pull-down/input)
GATGATTGTTCTCCCAGCTGATGAATTAGCGCAGTCGAGTAAACAAATTTTCCTAATCTTTCTGTTCAAGCGCCATCTAC | 0.971 RPM ratio (pull-down/input)
GATGATTGTTCTCCCAGCTGATGAATTATTGGCTTCGAGTAAACAAATTTTCCTAATCTTTCTGTTCAAGCGCCATCTAC | 1.1 RPM ratio (pull-down/input)
GATGATTGTTCTCCCAGCTGATGAATTTAGTGCCTCGAGTAAACAAATTTTCCTAATCTTTCTGTTCAAGCGCCATCTAC | 0.993 RPM ratio (pull-down/input)
GATGATTGTTCTCCCAGCTGATGAATTGCGTCCATCGAGTAAACAAATTTTCCTAATCTTTCTGTTCAAGCGCCATCTAC | 1.08 RPM ratio (pull-down/input)
GATGATTGTTCTCCCAGCTGATGAATTAGATACTTCGAGTAAACAAATTTTCCTAATCTTTCTGTTCAAGCGCCATCTAC | 1.06 RPM ratio (pull-down/input)
GATGATTGTTCTCCCAGCTGATGAATTTTCGTTTTCGAGTAAACAAATTTTCCTAATCTTTCTGTTCAAGCGCCATCTAC | 1.22 RPM ratio (pull-down/input)
GATGATTGTTCTCCCAGCTGATGAATTAGGGCGTTCGAGTAAACAAATTTTCCTAATCTTTCTGTTCAAGCGCCATCTAC | 0.896 RPM ratio (pull-down/input)
GATGATTGTTCTCCCAGCTGATGAATTGCTTTGATCGAGTAAACAAATTTTCCTAATCTTTCTGTTCAAGCGCCATCTAC | 1.06 RPM ratio (pull-down/input)
GATGATTGTTCTCCCAGCTGATGAATTAGTGGGATCGAGTAAACAAATTTTCCTAATCTTTCTGTTCAAGCGCCATCTAC | 0.946 RPM ratio (pull-down/input)
GATGATTGTTCTCCCAGCTGATGAATTCGGGCGATCGAGTAAACAAATTTTCCTAATCTTTCTGTTCAAGCGCCATCTAC | 0.856 RPM ratio (pull-down/input)
GATGATTGTTCTCCCAGCTGATGAATTATGGCGTTCGAGTAAACAAATTTTCCTAATCTTTCTGTTCAAGCGCCATCTAC | 1.05 RPM ratio (pull-down/input)
GATGATTGTTCTCCCAGCTGATGAATTATACACGTCGAGTAAACAAATTTTCCTAATCTTTCTGTTCAAGCGCCATCTAC | 1.15 RPM ratio (pull-down/input)
GATGATTGTTCTCCCAGCTGATGAATTCCTGCGTTCGAGTAAACAAATTTTCCTAATCTTTCTGTTCAAGCGCCATCTAC | 0.94 RPM ratio (pull-down/input)

Sequence | binding signal
GATGATTGTTCTCCCAGCTGATGAATTCACCAAATCGAGTAAACAAATTTTCCTAATCTTTCTGTTCAAGCGCCATCTAC | 1.07 RPM ratio (pull-down/input)
GATGATTGTTCTCCCAGCTGATGAATTGAAGTCTTCGAGTAAACAAATTTTCCTAATCTTTCTGTTCAAGCGCCATCTAC | 0.853 RPM ratio (pull-down/input)
GATGATTGTTCTCCCAGCTGATGAATTAGAGCTTTCGAGTAAACAAATTTTCCTAATCTTTCTGTTCAAGCGCCATCTAC | 0.946 RPM ratio (pull-down/input)
GATGATTGTTCTCCCAGCTGATGAATTTAATTACTCGAGTAAACAAATTTTCCTAATCTTTCTGTTCAAGCGCCATCTAC | 1.38 RPM ratio (pull-down/input)
GATGATTGTTCTCCCAGCTGATGAATTAACCGCGTCGAGTAAACAAATTTTCCTAATCTTTCTGTTCAAGCGCCATCTAC | 0.949 RPM ratio (pull-down/input)
GATGATTGTTCTCCCAGCTGATGAATTACAGCAGTCGAGTAAACAAATTTTCCTAATCTTTCTGTTCAAGCGCCATCTAC | 0.982 RPM ratio (pull-down/input)
GATGATTGTTCTCCCAGCTGATGAATTCCAAAAGTCGAGTAAACAAATTTTCCTAATCTTTCTGTTCAAGCGCCATCTAC | 0.77 RPM ratio (pull-down/input)
GATGATTGTTCTCCCAGCTGATGAATTTTGTCTGTCGAGTAAACAAATTTTCCTAATCTTTCTGTTCAAGCGCCATCTAC | 1.02 RPM ratio (pull-down/input)
GATGATTGTTCTCCCAGCTGATGAATTTGGAGTTTCGAGTAAACAAATTTTCCTAATCTTTCTGTTCAAGCGCCATCTAC | 0.855 RPM ratio (pull-down/input)
GATGATTGTTCTCCCAGCTGATGAATTGATGTATTCGAGTAAACAAATTTTCCTAATCTTTCTGTTCAAGCGCCATCTAC | 1.47 RPM ratio (pull-down/input)
GATGATTGTTCTCCCAGCTGATGAATTAAAGAGGTCGAGTAAACAAATTTTCCTAATCTTTCTGTTCAAGCGCCATCTAC | 0.78 RPM ratio (pull-down/input)
GATGATTGTTCTCCCAGCTGATGAATTGCGAACCTCGAGTAAACAAATTTTCCTAATCTTTCTGTTCAAGCGCCATCTAC | 1.01 RPM ratio (pull-down/input)
GATGATTGTTCTCCCAGCTGATGAATTACTAACGTCGAGTAAACAAATTTTCCTAATCTTTCTGTTCAAGCGCCATCTAC | 1.11 RPM ratio (pull-down/input)
GATGATTGTTCTCCCAGCTGATGAATTGCTCTGCTCGAGTAAACAAATTTTCCTAATCTTTCTGTTCAAGCGCCATCTAC | 0.916 RPM ratio (pull-down/input)
GATGATTGTTCTCCCAGCTGATGAATTTGGGTTTTCGAGTAAACAAATTTTCCTAATCTTTCTGTTCAAGCGCCATCTAC | 0.968 RPM ratio (pull-down/input)
GATGATTGTTCTCCCAGCTGATGAATTGCAACCCTCGAGTAAACAAATTTTCCTAATCTTTCTGTTCAAGCGCCATCTAC | 1.32 RPM ratio (pull-down/input)
GATGATTGTTCTCCCAGCTGATGAATTCTCAATGTCGAGTAAACAAATTTTCCTAATCTTTCTGTTCAAGCGCCATCTAC | 0.907 RPM ratio (pull-down/input)
GATGATTGTTCTCCCAGCTGATGAATTACCAGGATCGAGTAAACAAATTTTCCTAATCTTTCTGTTCAAGCGCCATCTAC | 0.922 RPM ratio (pull-down/input)
GATGATTGTTCTCCCAGCTGATGAATTCATGGCATCGAGTAAACAAATTTTCCTAATCTTTCTGTTCAAGCGCCATCTAC | 1.06 RPM ratio (pull-down/input)
GATGATTGTTCTCCCAGCTGATGAATTACATCATTCGAGTAAACAAATTTTCCTAATCTTTCTGTTCAAGCGCCATCTAC | 1.22 RPM ratio (pull-down/input)
GATGATTGTTCTCCCAGCTGATGAATTAGACAGCTCGAGTAAACAAATTTTCCTAATCTTTCTGTTCAAGCGCCATCTAC | 0.907 RPM ratio (pull-down/input)

Sequence | binding signal
GATGATTGTTCTCCCAGCTGATGAATTGTGGCGGTCGAGTAAACAAATTTTCCTAATCTTTCTGTTCAAGCGCCATCTAC | 1.03 RPM ratio (pull-down/input)
GATGATTGTTCTCCCAGCTGATGAATTACCTAATTCGAGTAAACAAATTTTCCTAATCTTTCTGTTCAAGCGCCATCTAC | 1.17 RPM ratio (pull-down/input)
GATGATTGTTCTCCCAGCTGATGAATTGTTCGCATCGAGTAAACAAATTTTCCTAATCTTTCTGTTCAAGCGCCATCTAC | 1.34 RPM ratio (pull-down/input)
GATGATTGTTCTCCCAGCTGATGAATTAGCGTATTCGAGTAAACAAATTTTCCTAATCTTTCTGTTCAAGCGCCATCTAC | 0.969 RPM ratio (pull-down/input)
GATGATTGTTCTCCCAGCTGATGAATTTCGTTAGTCGAGTAAACAAATTTTCCTAATCTTTCTGTTCAAGCGCCATCTAC | 0.911 RPM ratio (pull-down/input)
GATGATTGTTCTCCCAGCTGATGAATTGCACGGGTCGAGTAAACAAATTTTCCTAATCTTTCTGTTCAAGCGCCATCTAC | 0.957 RPM ratio (pull-down/input)
GATGATTGTTCTCCCAGCTGATGAATTCTGAATCTCGAGTAAACAAATTTTCCTAATCTTTCTGTTCAAGCGCCATCTAC | 0.782 RPM ratio (pull-down/input)
GATGATTGTTCTCCCAGCTGATGAATTGTTTCTTTCGAGTAAACAAATTTTCCTAATCTTTCTGTTCAAGCGCCATCTAC | 1.58 RPM ratio (pull-down/input)
GATGATTGTTCTCCCAGCTGATGAATTATTATGGTCGAGTAAACAAATTTTCCTAATCTTTCTGTTCAAGCGCCATCTAC | 1.24 RPM ratio (pull-down/input)
GATGATTGTTCTCCCAGCTGATGAATTGGACTACTCGAGTAAACAAATTTTCCTAATCTTTCTGTTCAAGCGCCATCTAC | 0.785 RPM ratio (pull-down/input)
GATGATTGTTCTCCCAGCTGATGAATTGGCGTGTTCGAGTAAACAAATTTTCCTAATCTTTCTGTTCAAGCGCCATCTAC | 0.991 RPM ratio (pull-down/input)
GATGATTGTTCTCCCAGCTGATGAATTTTGACCCTCGAGTAAACAAATTTTCCTAATCTTTCTGTTCAAGCGCCATCTAC | 0.832 RPM ratio (pull-down/input)
GATGATTGTTCTCCCAGCTGATGAATTGCCTCTCTCGAGTAAACAAATTTTCCTAATCTTTCTGTTCAAGCGCCATCTAC | 0.972 RPM ratio (pull-down/input)
GATGATTGTTCTCCCAGCTGATGAATTAATGCAGTCGAGTAAACAAATTTTCCTAATCTTTCTGTTCAAGCGCCATCTAC | 1.27 RPM ratio (pull-down/input)
GATGATTGTTCTCCCAGCTGATGAATTTGTTGTATCGAGTAAACAAATTTTCCTAATCTTTCTGTTCAAGCGCCATCTAC | 2.21 RPM ratio (pull-down/input)
GATGATTGTTCTCCCAGCTGATGAATTGTAGTGCTCGAGTAAACAAATTTTCCTAATCTTTCTGTTCAAGCGCCATCTAC | 1.04 RPM ratio (pull-down/input)
GATGATTGTTCTCCCAGCTGATGAATTCAGATTGTCGAGTAAACAAATTTTCCTAATCTTTCTGTTCAAGCGCCATCTAC | 0.994 RPM ratio (pull-down/input)
GATGATTGTTCTCCCAGCTGATGAATTGGACTGGTCGAGTAAACAAATTTTCCTAATCTTTCTGTTCAAGCGCCATCTAC | 0.832 RPM ratio (pull-down/input)
GATGATTGTTCTCCCAGCTGATGAATTTGTGCTCTCGAGTAAACAAATTTTCCTAATCTTTCTGTTCAAGCGCCATCTAC | 1.08 RPM ratio (pull-down/input)
GATGATTGTTCTCCCAGCTGATGAATTGGAGAGTTCGAGTAAACAAATTTTCCTAATCTTTCTGTTCAAGCGCCATCTAC | 0.803 RPM ratio (pull-down/input)
GATGATTGTTCTCCCAGCTGATGAATTGCTCAGGTCGAGTAAACAAATTTTCCTAATCTTTCTGTTCAAGCGCCATCTAC | 0.832 RPM ratio (pull-down/input)
